About 2,200 (0.71%) of roughly 310,000 compounds showed an effect of 50% or more. The effect is printed as a negative number. Some of the results follow.
The molecules below were run against human ether-à-go-go-related gene (hERG) potassium channel (human, UniProt Q12809) (assay: primary screen, population patch clamp on CHO cells stably expressing hERG).
Sequence of human ether-à-go-go-related gene (hERG) potassium channel (Q12809 whole entry, looked up): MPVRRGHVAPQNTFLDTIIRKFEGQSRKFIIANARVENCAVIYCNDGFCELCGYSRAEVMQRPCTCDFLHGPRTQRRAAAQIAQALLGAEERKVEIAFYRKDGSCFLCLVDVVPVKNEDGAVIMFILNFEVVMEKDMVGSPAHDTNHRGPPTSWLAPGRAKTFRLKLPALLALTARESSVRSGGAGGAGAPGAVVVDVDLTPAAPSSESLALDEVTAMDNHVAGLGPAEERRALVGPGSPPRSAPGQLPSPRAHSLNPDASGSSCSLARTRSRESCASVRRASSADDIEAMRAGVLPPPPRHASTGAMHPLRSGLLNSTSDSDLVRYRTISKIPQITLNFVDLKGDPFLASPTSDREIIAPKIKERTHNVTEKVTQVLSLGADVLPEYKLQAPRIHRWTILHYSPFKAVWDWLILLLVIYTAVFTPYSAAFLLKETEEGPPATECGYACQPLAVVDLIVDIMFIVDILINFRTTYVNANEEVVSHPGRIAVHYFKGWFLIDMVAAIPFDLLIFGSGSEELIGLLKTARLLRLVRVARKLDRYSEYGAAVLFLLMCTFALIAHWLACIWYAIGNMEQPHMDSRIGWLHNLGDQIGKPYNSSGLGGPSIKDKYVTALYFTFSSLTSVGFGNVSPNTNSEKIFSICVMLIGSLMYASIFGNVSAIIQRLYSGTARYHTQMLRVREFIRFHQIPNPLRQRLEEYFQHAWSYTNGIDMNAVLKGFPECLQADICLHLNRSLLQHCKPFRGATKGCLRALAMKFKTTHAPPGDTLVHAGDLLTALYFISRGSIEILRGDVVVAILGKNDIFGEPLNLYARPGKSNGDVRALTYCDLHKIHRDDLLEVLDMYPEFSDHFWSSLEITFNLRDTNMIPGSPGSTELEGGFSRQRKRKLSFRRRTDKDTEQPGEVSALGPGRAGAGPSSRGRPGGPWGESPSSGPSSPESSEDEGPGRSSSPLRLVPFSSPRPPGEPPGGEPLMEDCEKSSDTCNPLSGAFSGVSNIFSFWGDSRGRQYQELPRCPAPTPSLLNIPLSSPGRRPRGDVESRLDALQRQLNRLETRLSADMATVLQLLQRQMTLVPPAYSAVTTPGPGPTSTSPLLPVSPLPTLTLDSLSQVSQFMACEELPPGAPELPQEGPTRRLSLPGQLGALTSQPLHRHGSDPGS

In order of falling “hERG current change (%, negative = inhibition) at 1uM” value:
1. CCCCn1c(N)c(N(CC(C)C)C(=O)C2CSC3(C)CCC(=O)N23)c(=O)[nH]c1=O (centres unmarked)  23.4%
2. O=S1(=O)N=C(N(CCO)/N=C/c2ccc(Cl)cc2)c2ccccc21  20.5%
3. COc1ccccc1NC(=O)Nc1nnc(CC(=O)Nc2ccccc2C)s1  17.6%
4. CC(C)N1CCC2(CC1)NC(CO)(CO)CO2  17.2%
5. COc1ccc(N2CCN(C(c3cccs3)C(C)NC(=O)C(=O)N3CCOCC3)CC2)cc1 (centres unmarked)  16.6%
6. OCCC1CN(Cc2ccsc2)CCN1C1CCCC1 (centres unmarked)  16.5%
7. CCOC(=O)c1ccc(NC(=O)c2cccnc2)cc1  16.5%
8. Clc1ccc2nc(-c3ccc4c(c3)OCO4)cn2c1  15.3%
9. CCCc1nnc(SCC(=O)NC2CC2)n1C  15.1%
10. O=C(CCS(=O)(=O)c1ccc2c(c1)NC(=O)CS2)NCCc1ccccc1  14.9%
11. CCC(CC)c1nnc(NC(=O)C2CC(=O)N(CCc3ccc(F)cc3)C2)s1 (centres unmarked)  14.7%
12. FC(F)(F)C12CC(c3ccccc3)=NCCN1CCN2 (centres unmarked)  14.6%
13. Cc1cccc(-n2ncc3c2CCCC3NC(=O)CCc2cccnc2)c1C (centres unmarked)  14.5%
14. O=C(COC(=O)c1cc(Br)ccc1O)Nc1cccnc1Cl  14.2%
15. Cc1cccc(-n2c(C)cc(/C=C3\NC(=O)NC3=O)c2C)c1  14.1%
16. CCOC(=O)c1[nH]c(C)c(C(=O)C(C)C)c1C  13.9%
17. COc1ccc(S(=O)(=O)NC(C)C(=O)NCc2ccncc2)cc1Cl (centres unmarked)  13.7%
18. Cc1oc(-c2ccccc2F)nc1CS(=O)(=O)CC(=O)N1CCN(c2ccccc2)CC1  13.6%
19. CNC(=O)c1c(O)c2cccc3c2n(c1=O)CCC3  13.4%
20. COc1ccc(-c2oc(NC(=O)CSc3nncn3C)c(C#N)c2-c2ccc(OC)cc2)cc1  13.3%
21. O=C1SCCC1NS(=O)(=O)c1ccccc1[N+](=O)[O-] (centres unmarked)  13.3%
22. CC1=NN(CCC#N)C(=O)/C1=C/c1ccc(N(C)C)cc1  13%
23. Cc1ccccc1NC(=O)CCl  12.8%
24. C=CC[C@@]12C=C(OC)C(=O)C(OC)=C1O[C@H](c1ccc3c(c1)OCO3)[C@H]2C  12.5%
25. O=c1[nH]c(/C=C\c2ccccc2F)nc(O)c1[N+](=O)[O-]  12.3%
26. O=c1cc(O)c2c(=O)n(-c3ccccc3)c3ccccc3c2o1  12.2%
27. Cc1nc(SCC(=O)N2CCCc3ccccc32)c2oc3ccccc3c2n1  12.1%
28. Nc1ncnc2c1ncn2C1CCCO1 (centres unmarked)  12.1%
29. CC1(C(=O)O)C=CCN1C(=O)c1ccccc1 (centres unmarked)  11.7%
30. COc1ccc(CCN2C(=O)NC(NS(=O)(=O)c3ccc(Cl)cc3)(C(F)(F)F)C2=O)cc1OC (centres unmarked)  11.7%
31. C#CCNC(=O)C1=C[C@H](c2ccc(Br)cc2)[C@@H](CCCO)[C@H](OCC)O1  11.3%
32. CCCCn1c(N)c(N(CCOC)C(=O)c2ccc(-c3ccc([N+](=O)[O-])cc3)o2)c(=O)[nH]c1=O  11%
33. O=C(NCc1ccc(Cl)cc1)c1nccnc1CO  11%
34. Cc1nc(Nc2cccc(C(C)O)c2)c2nnn(Cc3ccc(F)cc3)c2n1 (centres unmarked)  10.9%
35. Nc1nc(-c2cccnc2)nn1C(=O)COc1ccccc1  10.8%
36. Cc1cc(C(=O)OCC(=O)NC(C)c2ccccc2)c(C)o1 (centres unmarked)  10.6%
37. N#Cc1nc(COc2ccccc2F)oc1NCCc1ccccc1  10.3%
38. CC1CCN(C(=O)Nc2cccc(NC(=O)N3CCC(C)CC3)c2)CC1  9.36%
39. Cc1cc(C(=O)Nc2ccc(N3CCOCC3)c3nonc23)ccc1[N+](=O)[O-]  9.36%
40. CC(C)NC(=O)NC(=O)COC(=O)CCCSc1nc2ccccc2s1  8.89%
41. NNC(=O)COc1ccc(C(F)(F)F)cc1  8.73%
42. Cc1nc2ccc(NC(=O)c3ccc(Br)o3)cc2s1  8.64%
43. Cc1ccc(-c2ccccc2NC(=O)CS(=O)CC(=O)Nc2ccc(C)c(Cl)c2)o1 (centres unmarked)  8.52%
44. Nc1nc(SCC(=O)Nc2ccccc2-c2ccccc2)n[nH]1  8.49%
45. Cc1nc(-c2nnc(SCC(=O)Nc3ccc(C(F)(F)F)cc3)n2C)cs1  8.2%
46. Cc1ccc(S(=O)(=O)/N=C2/NC(=O)/C(=C/c3ccccn3)S2)cc1  8.16%
47. CC(C)(C)NC(=O)C(c1ccccc1)N(C(=O)C1CSC(=O)C1)c1ccccc1 (centres unmarked)  8.06%
48. O=C(N/N=C/c1cccc(C(F)(F)F)c1)c1ccccc1O  7.95%
49. COc1ccccc1OCC(=O)Nc1nonc1NC(=O)COc1ccccc1OC  7.89%
50. O=[N+]([O-])c1nn(-c2ccc3c(c2)OCCO3)n(O)c1=Nc1ccccc1  7.69%
51. NNC(=O)/C(=N/Nc1ccccc1)S(=O)(=O)c1ccc(Cl)cc1  6.37%
52. O=c1oc2c3c4c(cc2c2c1CCC2)OCCN4CCC3  6.17%
53. CCn1c2ccccc2c2cc(NC(=O)c3cc(C)on3)ccc21  5.94%
54. NC(=O)C1CCN(C(=O)CCSc2ccccc2)CC1  5.63%
55. COc1ccc(NC(=O)c2ccc([N+](=O)[O-])cc2[N+](=O)[O-])c(OC)c1  5.23%
56. CN(Cc1ccccc1)C(=O)COc1ccc2ccccc2c1  4.91%
57. CC(=O)c1ccc(OCCCC(=O)NC2CCC(C)CC2)cc1 (centres unmarked)  4.82%
58. Cc1ccc(Nc2nc(N)nc(CN3CCN(C)CC3)n2)cc1  4.62%
59. O=C(CCc1nc2ccccc2[nH]c1=O)OCc1ccc(S(=O)(=O)N2CCOCC2)cc1  4.44%
60. O=C(COC(=O)c1ccc(-c2ccc([N+](=O)[O-])cc2)o1)NC(=O)NC1CCCCC1  3.83%
61. CCN(Cc1ccccc1)S(=O)(=O)c1c[nH]c(C(=O)OC)c1  3.79%
62. O=C(NCc1ccco1)/C(=C\c1cccs1)NC(=O)c1ccccc1  3.71%
63. COc1ccc(/C(=C\Nc2ccc(C)c(C)c2)C(C)=O)cc1OC  3.7%
64. COC(=O)c1ccccc1S(=O)(=O)Nc1ccc(OC)nc1  3.51%
65. CC(C)c1ccc2oc(=O)cc(CN3CCN(c4ccc(F)cc4)CC3)c2c1  2.8%
66. CC(C)NC(=O)N1CCN(c2ccncc2S(=O)(=O)N2CCOCC2)CC1  2.54%
67. Cn1cc(Cl)c(C(=O)Nc2nc3ccc(Cl)cc3s2)n1  2.49%
68. CCOc1ccc(CCNC(=O)C2CCN(c3ccc(N4CCOCC4)nn3)CC2)cc1OCC  2.39%
69. CCCn1c(=O)c2ccccc2n2c(SCCOc3ccccc3F)nnc12  2.21%
70. Cc1cc(S(=O)(=O)N2CCN(Cc3ccccc3)CC2)c(C)s1.Cl  2.04%
71. COC(Cn1c(-c2cccc(S(=O)(=O)N(C)C)c2)n[nH]c1=S)OC  1.89%
72. COCC(=O)n1nc(-c2ccccc2)nc1NCc1ccc(F)cc1  1.87%
73. O=CNc1ccc(OP(=O)(Oc2ccccc2)Oc2ccccc2)cc1  1.71%
74. Cn1c2c(c(=O)n(C)c1=O)C(c1ccc(Br)cc1)Nc1ccccc1O2 (centres unmarked)  1.36%
75. CC(=O)OCC1=C(C(=O)O)N2C(=O)C(NC(=O)CC(C)c3ccccc3)C2SC1 (centres unmarked)  1.25%
76. CCOC(=O)c1ccc2c(c1)n(Cc1ccccc1)c(C)[n+]2CC.[O-][Cl+3]([O-])([O-])[O-]  1.03%
77. COc1ccc(NC(=S)N(CCc2ccc(OC)c(OC)c2)Cc2ccccn2)cc1  0.952%
78. COc1ccc(F)cc1S(=O)(=O)N1CCCC(C)C1 (centres unmarked)  0.819%
79. O=C(Cc1ccccc1)N/N=C/c1ccc2cccc(O)c2n1  0.782%
80. CCOC(=O)c1nnc(-c2ccc(C)cc2)nc1Sc1cccc(Cl)c1  -0.239%
81. N/C(=N\OC(=O)COc1ccc(Cl)cc1Br)c1cccnc1  -1.87%
82. CCCN1Cc2cccc(C(=O)NCc3ccccc3OC)c2C1=O  -2.87%
83. O=C(c1cccc(C(=O)N2CCN(c3ccccc3)CC2)c1)N1CCN(c2ccccc2)CC1  -5.28%
84. CCOC(=O)CNc1c(-c2ccc(O)cc2)nc2ccccn12  -5.62%
85. COP(=O)(OC)/C(C=O)=N/Nc1ccc([N+](=O)[O-])cc1  -14.7%
86. OCCC1CN(Cc2cccc3nonc23)CCN1Cc1ccsc1 (centres unmarked)  -15.7%
87. CCCn1c(SCC(=O)Nc2cccc(C(=O)OC)c2)nnc1-c1cccnc1  -22.5%
88. CC(O)C(=O)O.COc1ccc(CN(CC(O)COc2cccc3[nH]cc(C)c23)C(C)(C)C)cc1 (centres unmarked)  -31%
89. Cc1nccn1CC(O)COc1ccc([N+](=O)[O-])cc1 (centres unmarked)  -41.3%

Source: paper PMC4336329 (PLoS ONE, 2015)
